Experimental findings from article PMC12820563 are described below.

This is one part of the list. The list includes weakly bound sequences.

The experiment concerns the target T1, MBP-FoxP3dN (UniProt Q99JB6).
T1 sequence: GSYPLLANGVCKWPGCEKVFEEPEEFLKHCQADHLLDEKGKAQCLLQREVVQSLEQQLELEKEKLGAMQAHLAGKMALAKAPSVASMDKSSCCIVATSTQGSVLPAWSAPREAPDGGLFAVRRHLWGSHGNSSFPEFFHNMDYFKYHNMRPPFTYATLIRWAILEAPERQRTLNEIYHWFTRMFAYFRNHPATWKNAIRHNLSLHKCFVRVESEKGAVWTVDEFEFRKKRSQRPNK
The experiment can be described thus: PD-seq (MBP pull-down with sequencing). Particulars: 20 mM Tris-HCl pH 7.5, 100 mM NaCl, 1.5 mM MgCl2, 0.4 uM protein, 0.1 uM dsDNA library, 30 min, room temperature, amylose pull-down; high values mean tight binding; double strand, one strand shown.
Regarding “GATGATTGTTCTCCCAGCTGATGAATTCATGTTCTCGAGTAAACAAATTTTCCTAATCTTTCTGTTCAAGCGCCATCTAC”, the binding signal (RPM ratio (pull-down/input)) came out at 1.06. “GATGATTGTTCTCCCAGCTGATGAATTCAGAGCATCGAGTAAACAAATTTTCCTAATCTTTCTGTTCAAGCGCCATCTAC”: the binding signal (RPM ratio (pull-down/input)) was determined as 0.65.

As to “GATGATTGTTCTCCCAGCTGATGAATTAGAATCGTCGAGTAAACAAATTTTCCTAATCTTTCTGTTCAAGCGCCATCTAC”, the binding signal (RPM ratio (pull-down/input)) was determined as 0.402. Regarding “GATGATTGTTCTCCCAGCTGATGAATTTGTACGATCGAGTAAACAAATTTTCCTAATCTTTCTGTTCAAGCGCCATCTAC”, the binding signal (RPM ratio (pull-down/input)) turned out to be 0.674. Consider “GATGATTGTTCTCCCAGCTGATGAATTGCAGTATTCGAGTAAACAAATTTTCCTAATCTTTCTGTTCAAGCGCCATCTAC”, for which the binding signal (RPM ratio (pull-down/input)) was determined as 1.7. The figure for “GATGATTGTTCTCCCAGCTGATGAATTGAACCATTCGAGTAAACAAATTTTCCTAATCTTTCTGTTCAAGCGCCATCTAC” is 0.512.

Consider “GATGATTGTTCTCCCAGCTGATGAATTAACCAGGTCGAGTAAACAAATTTTCCTAATCTTTCTGTTCAAGCGCCATCTAC”, for which the binding signal (RPM ratio (pull-down/input)) worked out at 0.14. With “GATGATTGTTCTCCCAGCTGATGAATTTATGTGTTCGAGTAAACAAATTTTCCTAATCTTTCTGTTCAAGCGCCATCTAC”, the binding signal (RPM ratio (pull-down/input)) amounted to 4.15. The same measure for “GATGATTGTTCTCCCAGCTGATGAATTAGCCACGTCGAGTAAACAAATTTTCCTAATCTTTCTGTTCAAGCGCCATCTAC”: 0.654.

For the sequence “GATGATTGTTCTCCCAGCTGATGAATTCTCAGCCTCGAGTAAACAAATTTTCCTAATCTTTCTGTTCAAGCGCCATCTAC”, the binding signal (RPM ratio (pull-down/input)) was found to be 0.345.

Take “GATGATTGTTCTCCCAGCTGATGAATTCTTAAACTCGAGTAAACAAATTTTCCTAATCTTTCTGTTCAAGCGCCATCTAC”: the binding signal (RPM ratio (pull-down/input)) was 0.267. The same measure for “GATGATTGTTCTCCCAGCTGATGAATTATGTCATTCGAGTAAACAAATTTTCCTAATCTTTCTGTTCAAGCGCCATCTAC”: 4.63. With “GATGATTGTTCTCCCAGCTGATGAATTACCTTCCTCGAGTAAACAAATTTTCCTAATCTTTCTGTTCAAGCGCCATCTAC”, the binding signal (RPM ratio (pull-down/input)) amounted to 0.308. The figure for “GATGATTGTTCTCCCAGCTGATGAATTTCCTCTTTCGAGTAAACAAATTTTCCTAATCTTTCTGTTCAAGCGCCATCTAC” is 0.263. As for “GATGATTGTTCTCCCAGCTGATGAATTATACACCTCGAGTAAACAAATTTTCCTAATCTTTCTGTTCAAGCGCCATCTAC”, the binding signal (RPM ratio (pull-down/input)) turned out to be 0.636.

As for “GATGATTGTTCTCCCAGCTGATGAATTTGGTTGATCGAGTAAACAAATTTTCCTAATCTTTCTGTTCAAGCGCCATCTAC”, the binding signal (RPM ratio (pull-down/input)) amounted to 2.12.

On to “GATGATTGTTCTCCCAGCTGATGAATTTACCTCGTCGAGTAAACAAATTTTCCTAATCTTTCTGTTCAAGCGCCATCTAC”, for which the binding signal (RPM ratio (pull-down/input)) is 0.473.

With “GATGATTGTTCTCCCAGCTGATGAATTCCACGTTTCGAGTAAACAAATTTTCCTAATCTTTCTGTTCAAGCGCCATCTAC”, the binding signal (RPM ratio (pull-down/input)) was 0.412.

Take “GATGATTGTTCTCCCAGCTGATGAATTGACCAAATCGAGTAAACAAATTTTCCTAATCTTTCTGTTCAAGCGCCATCTAC”: the binding signal (RPM ratio (pull-down/input)) worked out at 0.281. The same measure for “GATGATTGTTCTCCCAGCTGATGAATTTACTCCCTCGAGTAAACAAATTTTCCTAATCTTTCTGTTCAAGCGCCATCTAC”: 0.462; for “GATGATTGTTCTCCCAGCTGATGAATTAGTCTCATCGAGTAAACAAATTTTCCTAATCTTTCTGTTCAAGCGCCATCTAC”: 0.661. In the case of “GATGATTGTTCTCCCAGCTGATGAATTACCAGGTTCGAGTAAACAAATTTTCCTAATCTTTCTGTTCAAGCGCCATCTAC”, the binding signal (RPM ratio (pull-down/input)) was 0.252.

“GATGATTGTTCTCCCAGCTGATGAATTGGAACCTTCGAGTAAACAAATTTTCCTAATCTTTCTGTTCAAGCGCCATCTAC”: the binding signal (RPM ratio (pull-down/input)) was determined as 0.23. “GATGATTGTTCTCCCAGCTGATGAATTGCTCCGTTCGAGTAAACAAATTTTCCTAATCTTTCTGTTCAAGCGCCATCTAC”: the binding signal (RPM ratio (pull-down/input)) is 0.423. The same measure for “GATGATTGTTCTCCCAGCTGATGAATTTGTGCATTCGAGTAAACAAATTTTCCTAATCTTTCTGTTCAAGCGCCATCTAC”: 7.63; for “GATGATTGTTCTCCCAGCTGATGAATTATCTGAGTCGAGTAAACAAATTTTCCTAATCTTTCTGTTCAAGCGCCATCTAC”: 0.273. On to “GATGATTGTTCTCCCAGCTGATGAATTTTGAAGCTCGAGTAAACAAATTTTCCTAATCTTTCTGTTCAAGCGCCATCTAC”, for which the binding signal (RPM ratio (pull-down/input)) was 0.372. Turning to “GATGATTGTTCTCCCAGCTGATGAATTTATTTAATCGAGTAAACAAATTTTCCTAATCTTTCTGTTCAAGCGCCATCTAC”, the binding signal (RPM ratio (pull-down/input)) amounted to 2.19. For the sequence “GATGATTGTTCTCCCAGCTGATGAATTGATCCTTTCGAGTAAACAAATTTTCCTAATCTTTCTGTTCAAGCGCCATCTAC”, the binding signal (RPM ratio (pull-down/input)) is 0.264. The figure for “GATGATTGTTCTCCCAGCTGATGAATTCTGGGGTTCGAGTAAACAAATTTTCCTAATCTTTCTGTTCAAGCGCCATCTAC” is 0.402.

In the case of “GATGATTGTTCTCCCAGCTGATGAATTGCGTCCTTCGAGTAAACAAATTTTCCTAATCTTTCTGTTCAAGCGCCATCTAC”, the binding signal (RPM ratio (pull-down/input)) came to 1.24.
